Consider 98 variants from a collection of fitness landscapes (doi:10.1016/j.celrep.2020.107928).

Sequences and labels used below:
B1: Caulobacter ParB omega fusion; a variant is named by its letters at X, in order, B8GW30 (parent)
chain: MESVVVGEPGMSEGRRGLGRGLSALLGEVDAAPAQAPGEQLGGSREAPIEILQRNPDQPRRTFREEDLEDLSNSIREKGVLQPILVRPSPDTAGEYQIVAGERAWRAAQRAGLKTVPIMVRELDDLAVLEIGIIENVQRADLNVLEEALSYKVLMEKFERTQENIAQTIGKSXSHVANXMRLLXLPDEVQSYLVSGELTAXHARAIAAAADPVALAKQIIEGGLSVRETEALARKAPNLSAGKSKGGRPPRVKDTDTQALESDLSSVLGLDVSIDHRGSTGTLTITYATLEQLDDLCNRLTRGI

Over roughly 81,000 sequences, “one-hybrid fitness for binding parS DNA” has its median near -0.17; the highest 2% begin near 0.51. The list shows a part of the results. Bounds are passed on as bounds.

Variants of B1 are the subject of the assay. As to the kind of experiment: one-hybrid fitness for binding parS DNA (scaled: cognate 1, non-cognate 0); higher = stronger binding. The following applies: with parS DNA site. A digest of the protocol: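 The reporter was HIS3, with the binding site 19 bp from the promoter, in E. coli USO used for bacterial one-hybrid selection of Caulobacter ParB libraries with four specificity codons randomised. Growth was on M9 lacking histidine, with 0.1 mM IPTG and 5 mM 3-AT, for 48 hours at 37°C. Illumina sequencing covered plasmids before and after selection; three replicate libraries were pooled and variants with under 10 reads dropped. A fitness score is the log change in variant-to-wild-type read ratio, rescaled to the cognate and non-cognate references.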
KDKY: the “one-hybrid fitness for binding parS DNA” value was at most 0.2.

DKGL: the “one-hybrid fitness for binding parS DNA” value was at most 0.2.

Regarding PGQY, the “one-hybrid fitness for binding parS DNA” value was at most 0.2.

As to AENE, the “one-hybrid fitness for binding parS DNA” value was at most 0.2.

Take ETPY: the “one-hybrid fitness for binding parS DNA” value was at most 0.2.

PVAT: the “one-hybrid fitness for binding parS DNA” value was at most 0.2.

Regarding WQQT, the “one-hybrid fitness for binding parS DNA” value was at most 0.2.

In the case of LVSD, the “one-hybrid fitness for binding parS DNA” value is at most 0.2.

Regarding HLMY, the “one-hybrid fitness for binding parS DNA” value was at most 0.2.

As to KKGR, the “one-hybrid fitness for binding parS DNA” value was at most 0.2.

Regarding AQSR, the “one-hybrid fitness for binding parS DNA” value was at most 0.2.

On to TRYK, for which the “one-hybrid fitness for binding parS DNA” value was at most 0.2.

Regarding TYIT, the “one-hybrid fitness for binding parS DNA” value was at most 0.2.

As for DEVS, the “one-hybrid fitness for binding parS DNA” value was at most 0.2.

Take AENR: the “one-hybrid fitness for binding parS DNA” value was at most 0.2.

ISKA: the “one-hybrid fitness for binding parS DNA” value is at most 0.2.

As to HTSF, the “one-hybrid fitness for binding parS DNA” value is at most 0.2.

Turning to NWSV, the “one-hybrid fitness for binding parS DNA” value is at most 0.2.

In the case of EFHC, the “one-hybrid fitness for binding parS DNA” value is at most 0.2.

With QRIE, the “one-hybrid fitness for binding parS DNA” value was at most 0.2.

Consider PTDN, for which the “one-hybrid fitness for binding parS DNA” value was at most 0.2.

Turning to LPCL, the “one-hybrid fitness for binding parS DNA” value is at most 0.2.

Consider QMCY, for which the “one-hybrid fitness for binding parS DNA” value was at most 0.2.

Take HHMG: the “one-hybrid fitness for binding parS DNA” value is at most 0.2.

Consider QYLY, for which the “one-hybrid fitness for binding parS DNA” value was at most 0.2.

In the case of LVHQ, the “one-hybrid fitness for binding parS DNA” value was at most 0.2.

On to NVIS, for which the “one-hybrid fitness for binding parS DNA” value was at most 0.2.

For the variant RREY, the “one-hybrid fitness for binding parS DNA” value amounted to 0.295.

With WKDP, the “one-hybrid fitness for binding parS DNA” value is at most 0.2.

HAKR: the “one-hybrid fitness for binding parS DNA” value was at most 0.2.

Take SFAA: the “one-hybrid fitness for binding parS DNA” value is at most 0.2.

On to VSTM, for which the “one-hybrid fitness for binding parS DNA” value was at most 0.2.

Take TNLN: the “one-hybrid fitness for binding parS DNA” value is at most 0.2.

On to SGSH, for which the “one-hybrid fitness for binding parS DNA” value was at most 0.2.

Consider AASP, for which the “one-hybrid fitness for binding parS DNA” value was at most 0.2.

For the variant DPQQ, the “one-hybrid fitness for binding parS DNA” value is at most 0.2.

In the case of SRYM, the “one-hybrid fitness for binding parS DNA” value was at most 0.2.

Take LHWR: the “one-hybrid fitness for binding parS DNA” value was at most 0.2.

Consider YNND, for which the “one-hybrid fitness for binding parS DNA” value was at most 0.2.

As to VLIA, the “one-hybrid fitness for binding parS DNA” value was at most 0.2.

In the case of FRSG, the “one-hybrid fitness for binding parS DNA” value is at most 0.2.

For the variant SNLF, the “one-hybrid fitness for binding parS DNA” value was at most 0.2.

With FEDA, the “one-hybrid fitness for binding parS DNA” value was at most 0.2.

Take FSYT: the “one-hybrid fitness for binding parS DNA” value is at most 0.2.

For DYWR, the “one-hybrid fitness for binding parS DNA” value was at most 0.2.

As for AAGD, the “one-hybrid fitness for binding parS DNA” value was at most 0.2.

Turning to CHLM, the “one-hybrid fitness for binding parS DNA” value is at most 0.2.

Consider CERF, for which the “one-hybrid fitness for binding parS DNA” value is at most 0.2.

HLTD: the “one-hybrid fitness for binding parS DNA” value was at most 0.2.

As for GVIL, the “one-hybrid fitness for binding parS DNA” value is at most 0.2.

With IAKS, the “one-hybrid fitness for binding parS DNA” value was at most 0.2.

With IVVS, the “one-hybrid fitness for binding parS DNA” value was at most 0.2.

Turning to CVAC, the “one-hybrid fitness for binding parS DNA” value was at most 0.2.

For the variant FLAP, the “one-hybrid fitness for binding parS DNA” value is at most 0.2.

As to QWAC, the “one-hybrid fitness for binding parS DNA” value was at most 0.2.

On to QCNW, for which the “one-hybrid fitness for binding parS DNA” value is at most 0.2.

As for IYEV, the “one-hybrid fitness for binding parS DNA” value is at most 0.2.

For MLVW, the “one-hybrid fitness for binding parS DNA” value is at most 0.2.

With RGLR, the “one-hybrid fitness for binding parS DNA” value is at most 0.2.

QFNT: the “one-hybrid fitness for binding parS DNA” value was at most 0.2.

With LQTL, the “one-hybrid fitness for binding parS DNA” value was at most 0.2.

Turning to KAHC, the “one-hybrid fitness for binding parS DNA” value is at most 0.2.

For PSRN, the “one-hybrid fitness for binding parS DNA” value was at most 0.2.

Take VQWC: the “one-hybrid fitness for binding parS DNA” value is at most 0.2.

Consider RGTK, for which the “one-hybrid fitness for binding parS DNA” value is at most 0.2.

On to LGWM, for which the “one-hybrid fitness for binding parS DNA” value is at most 0.2.

ISGC: the “one-hybrid fitness for binding parS DNA” value was at most 0.2.

For HPVV, the “one-hybrid fitness for binding parS DNA” value was at most 0.2.

As to MDTV, the “one-hybrid fitness for binding parS DNA” value was at most 0.2.

As to PAWV, the “one-hybrid fitness for binding parS DNA” value was at most 0.2.

As to QDDR, the “one-hybrid fitness for binding parS DNA” value was at most 0.2.

Turning to DEMS, the “one-hybrid fitness for binding parS DNA” value is at most 0.2.

On to FHER, for which the “one-hybrid fitness for binding parS DNA” value was at most 0.2.

Take RMCD: the “one-hybrid fitness for binding parS DNA” value is at most 0.2.

In the case of CRPL, the “one-hybrid fitness for binding parS DNA” value was at most 0.2.

As to RHDH, the “one-hybrid fitness for binding parS DNA” value is at most 0.2.

Take TKLQ: the “one-hybrid fitness for binding parS DNA” value was at most 0.2.

As for CVKA, the “one-hybrid fitness for binding parS DNA” value was at most 0.2.

Consider KGPL, for which the “one-hybrid fitness for binding parS DNA” value was at most 0.2.

As to YEQR, the “one-hybrid fitness for binding parS DNA” value was at most 0.2.

For MGHG, the “one-hybrid fitness for binding parS DNA” value was at most 0.2.

Regarding KLKP, the “one-hybrid fitness for binding parS DNA” value was at most 0.2.

For the variant MRME, the “one-hybrid fitness for binding parS DNA” value was at most 0.2.

Turning to RPTK, the “one-hybrid fitness for binding parS DNA” value was at most 0.2.

Consider HGPM, for which the “one-hybrid fitness for binding parS DNA” value is at most 0.2.

As to TTNE, the “one-hybrid fitness for binding parS DNA” value was at most 0.2.

Regarding QIEF, the “one-hybrid fitness for binding parS DNA” value is at most 0.2.

Turning to EVLA, the “one-hybrid fitness for binding parS DNA” value was at most 0.2.

As to CTYS, the “one-hybrid fitness for binding parS DNA” value is at most 0.2.

In the case of WCNR, the “one-hybrid fitness for binding parS DNA” value was at most 0.2.

QLMY: the “one-hybrid fitness for binding parS DNA” value was at most 0.2.

Consider SNLI, for which the “one-hybrid fitness for binding parS DNA” value was at most 0.2.

In the case of SFAN, the “one-hybrid fitness for binding parS DNA” value was at most 0.2.

As to MNQL, the “one-hybrid fitness for binding parS DNA” value was at most 0.2.

For the variant ISGG, the “one-hybrid fitness for binding parS DNA” value is at most 0.2.

For VGYG, the “one-hybrid fitness for binding parS DNA” value was at most 0.2.

With YLHN, the “one-hybrid fitness for binding parS DNA” value is at most 0.2.

For the variant VRQH, the “one-hybrid fitness for binding parS DNA” value was at most 0.2.
